Test results from PubChem BioAssay (NCI).
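Test compounds were applied to cells in 96-well plates for 48 hours at 5 doses. GI50 is the concentration that inhibits growth by half. TGI: concentration producing complete growth inhibition.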

System: NCI-H322M lung
Assay: DTP human tumour cell line panel, 48 h

Compound | GI50 | TGI
NC(=O)c1c(NC(=O)c2ccc(C3CCCCC3)cc2)sc2c1CCC(=O)C2 | 2.98 µM | > 100 µM
CS(=O)c1nccc(-c2c(-c3ccc(F)c(OCc4ccc(F)cc4)c3)nc3sccn23)n1 (stereo unspecified) | 15.8 µM | 35.9 µM
COc1ccc(CCOc2cc3c(cc2OC)CCN(C(=O)NCc2cocn2)C3c2ccc(C)cc2C)cc1 (stereo unspecified) | 2.77 µM | > 100 µM
